# Read counts are not given, so values of variants with three or more changes are uncertain.
# B1: LINE1-mini (parent)
# chain: GGCAGAGCUCAACACAGCGUGGCAAAGUGGCUGUGGCUAGACUGCC
# Variants of: B1
# Assay: self-cleavage, relative activity (ratio to wild type); higher = more cleavage; in vitro, sequencing; the parent is a self-cleaving ribozyme
row,Variant,self-cleavage
1,G1C U28A U43A,0.02
2,G35C G40C C46A,0
3,G5A A11U A12G G19U A25C A26C G36U G40U A41G,0.01
4,A6G U32G G44C,0.02
5,A12G G21A G22A G36A C37A,0.03
6,A12C A16G U32C C45A,0
7,C3G G35A C37U,0.02
8,A11U A12G A16U C45A,0.02
9,C31G G36U U38C C45U,0.07
10,A6G C10A U20A,0.03
11,G5U G33U U38G,0.01
12,C10U A11G A14U C18A C31A,0.02
13,C3G G29C U34G,0.03
14,U9A G35U C37A G40U G44U C46U,0
15,C3A G22C U28G,0.2
16,C3G G17C U32A G35C C42A,0.12
17,C13U A24U G30U G36C,0.42
18,U9G G27A U43C,0.07
19,G27U U32A A41U,0.09
20,G21C U34G G35A G36C,0.06
21,A12C A24C G33U A41C,0
22,G17C C18U G19A G22C G29A G40A,0.02
23,G1A A11U A24U U38G,0
24,C3U G17U G22U C23U,0.22

row,Variant,self-cleavage
1,U20A A25U A26C G33A,0.03
2,G2U C13U A24G G27C G29A C46G,0.1
3,G2U C3U A16C C18U G19U G27C,0.04
4,A12G A25C C42G,0.22
5,G5A A6G G35U G44U,0.05
6,C3A C13A U28G,0.05
7,G2U A12C G19C A41C G44A,0.01
8,A24U U32G C37U G44U,0.14
9,G1U G2C C10G U32G,0.01
10,C10G A11U G29A C45G,0.02
11,U9G G17A G22C A24C A26C G29C G33U G35C U38A,0
12,G1A A6C C10A A14U A24U A41U,0.08
13,A11G C15A C37U,0.03
14,C8A A16U G22U C23G,0.24
15,C18G G29U C46G,0.37
16,G5C A25G A41U,0.24
17,U9C A16C U20C G22C G30U,0.01
18,G2U G40A C46A,0.04
19,G2U C13U G22C C45A C46A,0.12
20,G2C C15U C23U A26C C46A,0.13
21,C10A A11G G36A U38G,0.02
22,C3U G33A U38C C45U,0.08
23,G2A A14G C15A G19U,0.09
24,C23G U34A A41G,0.02

row,Variant,self-cleavage
1,C3G A16C A41C,0.02
2,G2A A12G C18A C37U,0.2
3,G5U C18U A26C,0.19
4,G5A C18G G33A C45U,0.1
5,G2U A4U C8G,0.02
6,C18A C31G U34A,0.01
7,G1U U32G A41G,0.05
8,G19C G27A U32A C45G,0.09
9,C3A U9C C18A U38G A39U C45G C46U,0.01
10,G1A C10G G19A C45U,0.22
11,C3U A4G G7C C13U A14U G22A A24G,0.08
12,C3G C23U C37G,0.03
13,G21U G33C U34A G35A,0.05
14,C8U C15G C31U,0.21
15,C15G G17A C31A G40U,0.03
16,G2U G22C C31G C42U,0.02
17,U20C G22A G30U,0.09
18,C8A C13U A16C G35A,0.22
19,G1C C3A G22A,0.16
20,A26U G40A C46A,0.09
21,A6U U20G G22A C42U,0.09
22,C23A A24G G27U G36C,0.02
23,A16C G33U U34C,0.29
24,C8U C13G C15A,1.04

row,Variant,self-cleavage
1,G22U A25U U43A,0.11
2,G17C U20G G21U,0.56
3,A25G G40U C42A,0
4,C3A C13G C31G,0.12
5,G21A A25C U32A,0.05
6,G2U G7U C15U C37G A39U,0.08
7,C8U G30U U32A,0.05
8,G7U A11C G17A,0.03
9,C3A G17U U32C,0.11
10,U20A G21C A25G G33U,0.02
11,G1U G17U A24C U38C,0.01
12,C3A A14U U20C C23A U43G,0.07
13,A14C U20G G27C G29U,0.03
14,G5A A11U G21U,0.01
15,G1U A6C G7A C15A A24C A25G,0.01
16,G1U G2A A16U A39G,0.03
17,G2C C3U G7A G19C G21U,0.13
18,C31U A39U C42U,0.02
19,C8U A14C G19C C45U C46U,0.05
20,C15A G29U G36U,0.05
21,G1C A6G U20G G22A G29U,0.02
22,A4U A16C A26G A41C,0
23,A16G C18A C31A G40U,0
24,C15G C23U C46U,0.02

row,Variant,self-cleavage
1,G5A C18G C23A,0.1
2,A11C C18G A24G U34C G36C,0.01
3,C3U G22U A26G C42U,0.52
4,G1C A16U U20A G27A G44A,0.02
5,G19A G21A G27U C42U,2.83
6,G2C G17U C23U G33U G36A,0.2
7,G1C G5U C8A G27U,0.1
8,C8A G27U C42G C46A,0.19
9,C15U A24C U38C A39G,0.03
10,C18A G27C C42U,0.05
11,G7C A16C A24G,0
12,G5C G21A A25C C46A,0.05
13,C10A A12C U20C C23U G40C C45A,0.01
14,C10U A12U G35A,0.17
15,C8A A26G G36A C45A,0.18
16,G2A C13U A14U U20G A25U,0.3
17,G7C G21U A25G U32C,0.05
18,G2A A16C A24U A25G G40U,0.03
19,C8A A14G G22U,0.06
20,G21U U28C U34C A39G U43G,0
21,G17U G21U G33C C37U C42A C45A,0.01
22,G2U C3A C18A G44A,0.23
23,G7U G30C C31U G40A C42G,0.19
24,A11C A41C C42A,0.03

row,Variant,self-cleavage
1,G2C A14C C37U A41C,0.03
2,U32A U38G U43C,0.01
3,C3A C13U G44A,0.12
4,A6U A11U U20C A24C C31U G40U,0.01
5,C15G G17C A39G C45U,0.2
6,C10A G27U C31A,0.12
7,G5A A14G A26U U32G,0.05
8,C3G G5A G7U G40U,0.15
9,A4G C8A C10A,0.01
10,G1A C8U A16U G30U C42U,0.25
11,A24U A41C G44A,0.05
12,C10G G21U G27A G36C C42A,0.01
13,G19C G22A A24G,0.17
14,G5C C13G C18A U20G A39G A41U,0.01
15,C10A A16G G19U G22U G40C,0
16,A6U G7C G22A G40C,0.09
17,A16C G21A C31A U34G G35U,0.08
18,G7U G27C G40C C42U,0.25
19,G17U G22C G29A C31U G40U C46A,0.11
20,U20G G21A G30U,0.4
21,A6C G22U G30C U38C,0.12
22,C13G C15G U20A G29A C45G,0.02
23,A6G G19A G21A G29C,0.16
24,C3G U32A G36U,0.09

row,Variant,self-cleavage
1,G7U C13U G22U C31U C42G,0.03
2,G1A G2A A6G A25U C31A C37G A39U,0.19
3,A25U A39C U43C,0.02
4,C23G A24C G33C C45G,0.03
5,G29U C31A U38A U43C,0.03
6,G1C A4C A11U U43G,0
7,A12U A14C G36C C46G,0
8,G19C C23G C46A,0.18
9,A16C G19A U20C G33U,0.03
10,C13U C15A A16U C18G C37G,0.06
11,C3G C8G G35A,0.04
12,C13U G33C G36C G40A,0
13,A14C G29C U38G,0
14,G5A A14C C18U G35A A39G A41U,0.18
15,U9A A11U C31G,0.02
16,U20G C23A A25G G30C U34A,0.01
17,G7C A12G G40U C42A,0.07
18,G2C G7A G17C A26U G29C,0.31
19,G33C G40A C45G,0.02
20,C8A A14C U20G,0.05
21,A4U A12U G17C A24C,0.05
22,G5U C10A C15A C45A,0.05
23,C3U A16G C37A,0.07
